{"source": "the supplement of paper PMC8728848", "assay_in_all_cases": "glycan array binding signal (z-score within array); higher = stronger binding", "settings_in_all_cases": "glycan notation: IUPAC condensed, linker removed", "key": {"Neu5Ac(a2-3)GalNAc": {"target": "Neu5Ac(a2-3)GalNAc", "outline": "(§1)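 The Consortium for Functional Glycomics database supplied 3228 glycan arrays, of which those lacking an available protein sequence were dropped. The binding signal, a within-array Z-score, was averaged across arrays of the same protein sequence and across linkers. Negative scores can be read as non-binding.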"}, "[1]": {"target": "Neu5Ac(a2-3)GalNAc(b1-4)GlcNAc", "outline": "as §1"}, "[2]": {"target": "Neu5Ac(a2-3)[GalNAc(b1-4)]Gal(b1-4)Glc", "outline": "as §1"}, "[3]": {"target": "Neu5Ac(a2-3)[GalNAc(b1-4)]Gal(b1-4)GlcNAc", "outline": "as §1"}, "[4]": {"target": "Neu5Ac(a2-3)[GalNAc(b1-4)]Gal(b1-4)GlcNAc(b1-3)GalNAc", "outline": "as §1"}, "[5]": {"target": "Neu5Ac(a2-3)[Neu5Ac(a2-6)]GalNAc", "outline": "as §1"}, "Neu5Ac(a2-6)Gal": {"target": "Neu5Ac(a2-6)Gal", "outline": "as §1"}, "[6]": {"target": "Neu5Ac(a2-6)Gal(b1-3)GlcNAc(b1-3)[Gal(b1-4)GlcNAc(b1-6)]Gal(b1-4)Glc", "outline": "as §1"}, "Neu5Ac(a2-6)Gal(b1-4)Glc": {"target": "Neu5Ac(a2-6)Gal(b1-4)Glc", "outline": "as §1"}, "[7]": {"target": "Neu5Ac(a2-6)Gal(b1-4)GlcNAc", "outline": "as §1"}, "[8]": {"target": "Neu5Ac(a2-6)Gal(b1-4)GlcNAc(b1-2)Man", "outline": "as §1"}, "[9]": {"target": "Neu5Ac(a2-6)Gal(b1-4)GlcNAc(b1-2)Man(a1-3)Man(b1-4)GlcNAc(b1-4)GlcNAc", "outline": "as §1"}, "[10]": {"target": "Neu5Ac(a2-6)Gal(b1-4)GlcNAc(b1-2)Man(a1-3)[Gal(b1-4)GlcNAc(b1-2)Man(a1-6)]Man(b1-4)GlcNAc(b1-4)GlcNAc", "outline": "as §1"}, "[11]": {"target": "Neu5Ac(a2-6)Gal(b1-4)GlcNAc(b1-2)Man(a1-3)[GlcNAc(b1-2)Man(a1-6)]Man(b1-4)GlcNAc(b1-4)GlcNAc", "outline": "as §1"}, "[12]": {"target": "Neu5Ac(a2-6)Gal(b1-4)GlcNAc(b1-2)Man(a1-3)[GlcNAc(b1-4)][Neu5Ac(a2-6)Gal(b1-4)GlcNAc(b1-2)Man(a1-6)]Man(b1-4)GlcNAc(b1-4)GlcNAc", "outline": "as §1"}, "[13]": {"target": "Neu5Ac(a2-6)Gal(b1-4)GlcNAc(b1-2)Man(a1-3)[Man(a1-6)]Man(b1-4)GlcNAc(b1-4)GlcNAc", "outline": "as §1"}, "[14]": {"target": "Neu5Ac(a2-6)Gal(b1-4)GlcNAc(b1-2)Man(a1-3)[Neu5Ac(a2-3)Gal(b1-4)GlcNAc(b1-2)Man(a1-6)]Man(b1-4)GlcNAc(b1-4)GlcNAc", "outline": "as §1"}, "[15]": {"target": "Neu5Ac(a2-6)Gal(b1-4)GlcNAc(b1-2)Man(a1-3)[Neu5Ac(a2-6)Gal(b1-4)GlcNAc(b1-2)Man(a1-6)]Man(b1-4)GlcNAc(b1-4)GlcNAc", "outline": "as §1"}, "[16]": {"target": "Neu5Ac(a2-6)Gal(b1-4)GlcNAc(b1-2)Man(a1-3)[Neu5Ac(a2-6)Gal(b1-4)GlcNAc(b1-2)Man(a1-6)]Man(b1-4)GlcNAc(b1-4)[Fuc(a1-6)]GlcNAc", "outline": "as §1"}, "[17]": {"target": "Neu5Ac(a2-6)Gal(b1-4)GlcNAc(b1-2)Man(a1-6)Man(b1-4)GlcNAc(b1-4)GlcNAc", "outline": "as §1"}, "[18]": {"target": "Neu5Ac(a2-6)Gal(b1-4)GlcNAc(b1-2)Man(a1-6)[Gal(b1-4)GlcNAc(b1-2)Man(a1-3)]Man(b1-4)GlcNAc(b1-4)GlcNAc", "outline": "as §1"}, "[19]": {"target": "Neu5Ac(a2-6)Gal(b1-4)GlcNAc(b1-2)Man(a1-6)[GlcNAc(b1-2)Man(a1-3)]Man(b1-4)GlcNAc(b1-4)GlcNAc", "outline": "as §1"}, "[20]": {"target": "Neu5Ac(a2-6)Gal(b1-4)GlcNAc(b1-2)Man(a1-6)[Man(a1-3)]Man(b1-4)GlcNAc(b1-4)GlcNAc", "outline": "as §1"}, "[21]": {"target": "Neu5Ac(a2-6)Gal(b1-4)GlcNAc(b1-2)[Neu5Ac(a2-6)Gal(b1-4)GlcNAc(b1-4)]Man(a1-3)[GlcNAc(b1-4)][Neu5Ac(a2-6)Gal(b1-4)GlcNAc(b1-2)[Neu5Ac(a2-6)Gal(b1-4)GlcNAc(b1-6)]Man(a1-6)]Man(b1-4)GlcNAc(b1-4)GlcNAc", "outline": "as §1"}, "[22]": {"target": "Neu5Ac(a2-6)Gal(b1-4)GlcNAc(b1-2)[Neu5Ac(a2-6)Gal(b1-4)GlcNAc(b1-4)]Man(a1-3)[GlcNAc(b1-4)][Neu5Ac(a2-6)Gal(b1-4)GlcNAc(b1-4)Man(a1-6)]Man(b1-4)GlcNAc(b1-4)GlcNAc", "outline": "as §1"}, "[23]": {"target": "Neu5Ac(a2-6)Gal(b1-4)GlcNAc(b1-2)[Neu5Ac(a2-6)Gal(b1-4)GlcNAc(b1-6)]Man(a1-6)[Neu5Ac(a2-6)Gal(b1-4)GlcNAc(b1-2)Man(a1-3)][GlcNAc(b1-4)]Man(b1-4)GlcNAc(b1-4)GlcNAc", "outline": "as §1"}, "[24]": {"target": "Neu5Ac(a2-6)Gal(b1-4)GlcNAc(b1-3)Gal(b1-3)GlcNAc", "outline": "as §1"}, "[25]": {"target": "Neu5Ac(a2-6)Gal(b1-4)GlcNAc(b1-3)Gal(b1-4)GlcNAc", "outline": "as §1"}, "[26]": {"target": "Neu5Ac(a2-6)Gal(b1-4)GlcNAc(b1-3)Gal(b1-4)GlcNAc(b1-2)Man(a1-3)[Neu5Ac(a2-6)Gal(b1-4)GlcNAc(b1-3)Gal(b1-4)GlcNAc(b1-2)Man(a1-6)]GalNAc", "outline": "as §1"}, "[27]": {"target": "Neu5Ac(a2-6)Gal(b1-4)GlcNAc(b1-3)Gal(b1-4)GlcNAc(b1-3)Gal(b1-4)GlcNAc", "outline": "as §1"}, "[28]": {"target": "Neu5Ac(a2-6)Gal(b1-4)GlcNAc(b1-3)Gal(b1-4)GlcNAc(b1-3)Gal(b1-4)GlcNAc(b1-2)Man(a1-3)[Neu5Ac(a2-6)Gal(b1-4)GlcNAc(b1-3)Gal(b1-4)GlcNAc(b1-3)Gal(b1-4)GlcNAc(b1-2)Man(a1-6)]GalNAc", "outline": "as §1"}, "[29]": {"target": "Neu5Ac(a2-6)Gal(b1-4)GlcNAc(b1-3)Gal(b1-4)GlcNAc(b1-3)GalNAc", "outline": "as §1"}, "[30]": {"target": "Neu5Ac(a2-6)Gal(b1-4)GlcNAc(b1-3)Gal(b1-4)GlcNAc(b1-3)[Neu5Ac(a2-6)Gal(b1-4)GlcNAc(b1-3)Gal(b1-4)GlcNAc(b1-6)]GalNAc", "outline": "as §1"}, "[31]": {"target": "Neu5Ac(a2-6)Gal(b1-4)GlcNAc(b1-3)Gal(b1-4)GlcNAc(b1-6)[Gal(b1-3)]GalNAc", "outline": "as §1"}, "[32]": {"target": "Neu5Ac(a2-6)Gal(b1-4)GlcNAc(b1-3)Gal(b1-4)[Fuc(a1-3)]GlcNAc(b1-3)Gal(b1-4)[Fuc(a1-3)]GlcNAc", "outline": "as §1"}, "[33]": {"target": "Neu5Ac(a2-6)Gal(b1-4)GlcNAc(b1-3)GalNAc", "outline": "as §1"}, "[34]": {"target": "Neu5Ac(a2-6)Gal(b1-4)GlcNAc(b1-3)[Neu5Ac(a2-6)Gal(b1-4)GlcNAc(b1-6)]GalNAc", "outline": "as §1"}}, "note": "The other results are listed elsewhere or left out.", "data": [{"binder": "GS14009A-pdi-495-27-495 (Parabacteroides distasonis) (protein) FEEVNTDPDSPTDVPTTNLLAYSLYYTSYRLYDRWFAMDEPMTFCGYASKMTYIDESRYNFRTGVQDTNWEYLYRILNNLKDIEKRATFNETPNMLNVSKVMQVHLMQVATDRWRDVPYTDAAKMTDGILQPKYDKQEDIYPGLLATLKEAADGFADGGSDDLGEGDLLFGGDIEKWQRYCNSMRLRLAMRISEVSPALAKETVEEVMGNPTKYPIMESNDDNAFFWWIGTDPNYYEPMADGYRTRKTEYCAADVIVDHMNTREDPRRSSYFQPTKESVEAGEPKYVGYTIGAKANAVASKYSIWGARFFTDLAGFSPYMRVAEPWFCVAEASMLGWNTGISAEDAYNKAVTYSMEENSVSAEDIADYLANAGKFTNDKKQIYYEEWVAMFKQGMEGWSLYRRTGVPDNLYPAPGRPANYSNHNVPPFRSPYPDKERNLNNANCAPFDAEVVDNLWGKQMWWDTRTGVH", "values": [{"measurement": "glycan array binding signal (z-score)", "setting": "Neu5Ac(a2-3)GalNAc", "value": -0.522}, {"measurement": "glycan array binding signal (z-score)", "setting": "[1]", "value": -0.547}, {"measurement": "glycan array binding signal (z-score)", "setting": "[2]", "value": -0.129}, {"measurement": "glycan array binding signal (z-score)", "setting": "[3]", "value": -0.641}, {"measurement": "glycan array binding signal (z-score)", "setting": "[4]", "value": 1}, {"measurement": "glycan array binding signal (z-score)", "setting": "[5]", "value": -1.01}, {"measurement": "glycan array binding signal (z-score)", "setting": "Neu5Ac(a2-6)Gal", "value": 0.931}, {"measurement": "glycan array binding signal (z-score)", "setting": "[6]", "value": -0.337}, {"measurement": "glycan array binding signal (z-score)", "setting": "Neu5Ac(a2-6)Gal(b1-4)Glc", "value": 0.329}, {"measurement": "glycan array binding signal (z-score)", "setting": "[7]", "value": -0.008}, {"measurement": "glycan array binding signal (z-score)", "setting": "[8]", "value": -0.108}, {"measurement": "glycan array binding signal (z-score)", "setting": "[9]", "value": 0.245}, {"measurement": "glycan array binding signal (z-score)", "setting": "[10]", "value": 0.284}, {"measurement": "glycan array binding signal (z-score)", "setting": "[11]", "value": -0.126}, {"measurement": "glycan array binding signal (z-score)", "setting": "[12]", "value": -0.102}, {"measurement": "glycan array binding signal (z-score)", "setting": "[13]", "value": -0.647}, {"measurement": "glycan array binding signal (z-score)", "setting": "[14]", "value": -0.631}, {"measurement": "glycan array binding signal (z-score)", "setting": "[15]", "value": -0.114}, {"measurement": "glycan array binding signal (z-score)", "setting": "[16]", "value": 0.457}, {"measurement": "glycan array binding signal (z-score)", "setting": "[17]", "value": -0.893}, {"measurement": "glycan array binding signal (z-score)", "setting": "[18]", "value": 0.46}, {"measurement": "glycan array binding signal (z-score)", "setting": "[19]", "value": -0.042}, {"measurement": "glycan array binding signal (z-score)", "setting": "[20]", "value": -0.156}, {"measurement": "glycan array binding signal (z-score)", "setting": "[21]", "value": -0.036}, {"measurement": "glycan array binding signal (z-score)", "setting": "[22]", "value": 0.029}, {"measurement": "glycan array binding signal (z-score)", "setting": "[23]", "value": -0.319}, {"measurement": "glycan array binding signal (z-score)", "setting": "[24]", "value": -0.204}, {"measurement": "glycan array binding signal (z-score)", "setting": "[25]", "value": -0.236}, {"measurement": "glycan array binding signal (z-score)", "setting": "[26]", "value": -0.152}, {"measurement": "glycan array binding signal (z-score)", "setting": "[27]", "value": -0.311}, {"measurement": "glycan array binding signal (z-score)", "setting": "[28]", "value": -0.125}, {"measurement": "glycan array binding signal (z-score)", "setting": "[29]", "value": -0.262}, {"measurement": "glycan array binding signal (z-score)", "setting": "[30]", "value": 0.196}, {"measurement": "glycan array binding signal (z-score)", "setting": "[31]", "value": 0.489}, {"measurement": "glycan array binding signal (z-score)", "setting": "[32]", "value": -0.398}, {"measurement": "glycan array binding signal (z-score)", "setting": "[33]", "value": -0.423}, {"measurement": "glycan array binding signal (z-score)", "setting": "[34]", "value": -0.228}]}]}
